Several values for one entry are separate records, joined by “and”; a condition that tells them apart may be missing. Equal values may be shown once.
How the values were obtained:
[1] = molecular target: T1, BMP10 (human, UniProt O95393 317-424); assay: cell-based or functional assay
T1 sequence: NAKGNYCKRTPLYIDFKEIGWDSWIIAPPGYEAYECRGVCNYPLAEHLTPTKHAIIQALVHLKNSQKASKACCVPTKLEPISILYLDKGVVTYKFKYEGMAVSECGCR

[2] = molecular target: T1, BMP10; assay: cell-based or functional assay; remark: listed apart in the source
[3] = molecular target: T2, BMP9 (human, UniProt Q9UK05 320-429); assay: SPR kinetics
T2 construct: also called hBMP-9; hBMP9
T2 sequence (looked up): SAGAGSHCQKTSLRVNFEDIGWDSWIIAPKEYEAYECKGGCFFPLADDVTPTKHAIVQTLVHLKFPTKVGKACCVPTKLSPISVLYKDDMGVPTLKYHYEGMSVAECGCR

[4] = molecular target: T2, BMP9; assay: SPR kinetics; CHO-cell-derived protein
[5] = molecular target: T1, BMP10; assay: SPR kinetics; CHO-cell-derived protein
[6] = molecular target: T3, TGF-β2 (human, UniProt P61812 303-414); assay: SPR (Biacore); captured hENG(26-586)-hFc, soluble ligand; - means undetectable
T3 construct: also called hTGF-β2
T3 sequence (looked up): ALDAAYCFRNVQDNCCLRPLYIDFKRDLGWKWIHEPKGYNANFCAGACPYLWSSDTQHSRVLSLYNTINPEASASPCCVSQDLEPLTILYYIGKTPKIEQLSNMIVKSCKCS
Text: (§1) Considered a co-receptor, ENG is widely thought to function by facilitating the binding of TGF-01 and -3 to multi-protein complexes of type I and type II receptors. To investigate the possibility of direct ligand binding by isolated ENG, surface plasmon resonance (SPR) methodology (Biacore™ instrument) was used to screen for binding of captured proteins comprising the full-length extracellular domain of ENG to a variety of soluble human TGF-β family ligands.
(§2) Thus, selective high-affinity binding of BMP9 and BMP10 is a previously unrecognized property of the ENG extracellular domain.

[7] = molecular target: T4, BMP2 (human, UniProt P12643 283-396); assay: as above
T4 construct: also called hBMP-2
T4 sequence (looked up): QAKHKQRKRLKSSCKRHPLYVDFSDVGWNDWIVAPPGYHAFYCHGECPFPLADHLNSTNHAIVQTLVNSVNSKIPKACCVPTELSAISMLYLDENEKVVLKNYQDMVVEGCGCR
Text: as §1, §2

[8] = molecular target: T5, TGF-β1 (human, UniProt P01137 fragment); assay: as above
T5 construct: also called hTGF-β1; hTGF-βI
Text: as §1, §2

[9] = molecular target: T6, TGF-β3 (human, UniProt P10600 301-412); assay: as above
T6 construct: also called hTGF-β3
T6 sequence (looked up): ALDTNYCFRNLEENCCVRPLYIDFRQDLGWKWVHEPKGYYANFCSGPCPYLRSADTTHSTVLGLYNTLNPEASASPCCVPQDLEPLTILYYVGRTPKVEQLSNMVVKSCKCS
Text: as §1, §2

[10] = molecular target: T7, activin A (human, UniProt P08476 311-426); assay: as above
T7 construct: also called hActivin A
T7 sequence (looked up): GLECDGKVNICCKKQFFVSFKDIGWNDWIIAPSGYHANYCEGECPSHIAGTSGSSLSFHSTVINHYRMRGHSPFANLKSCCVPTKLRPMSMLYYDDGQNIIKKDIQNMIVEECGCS
Text: as §1, §2

[11] = molecular target: T8, hBMP-2/7 (human, UniProt P12643 283-396; P18075 293-431); assay: as above
T8 sequence (looked up) 1: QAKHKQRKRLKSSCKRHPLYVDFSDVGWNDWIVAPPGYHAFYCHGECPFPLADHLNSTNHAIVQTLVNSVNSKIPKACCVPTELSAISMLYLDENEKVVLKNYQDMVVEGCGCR
T8 sequence (looked up) 2: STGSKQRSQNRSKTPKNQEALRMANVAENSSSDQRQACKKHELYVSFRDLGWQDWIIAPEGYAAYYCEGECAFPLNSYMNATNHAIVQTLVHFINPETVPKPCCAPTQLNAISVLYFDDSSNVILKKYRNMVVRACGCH
Text: as §1, §2

[12] = molecular target: T9, BMP7 (human, UniProt P18075 293-431); assay: as above
T9 construct: also called hBMP-7
T9 sequence (looked up): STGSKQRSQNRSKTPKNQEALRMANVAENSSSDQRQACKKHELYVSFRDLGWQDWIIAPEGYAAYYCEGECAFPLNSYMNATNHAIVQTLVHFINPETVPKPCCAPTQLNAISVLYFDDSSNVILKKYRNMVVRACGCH
Text: as §1, §2

T5 sequence (P01137 279-390 limits assumed): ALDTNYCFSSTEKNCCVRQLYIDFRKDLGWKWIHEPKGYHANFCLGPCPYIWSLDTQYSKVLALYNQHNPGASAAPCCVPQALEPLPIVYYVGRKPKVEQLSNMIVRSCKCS

B1: BMP10pro(22-315)-hFc (Fc fusion)
chain: SPIMNLEQSPLEEDMSLFGDVFSEQDGVDFNTLLQSMKDEFLKTLNLSDIPTQDSAKVDPPEYMLELYNKFATDRTSMPSANIIRSFKNEDLFSQPVSFNGLRKYPLLFNVSIPHHEEVIMAELRLYTLVQRDRMIYDGVDRKITIFEVLESKGDNEGERNMLVLVSGEIYGTNSEWETFDVTDAIRRWQKSGSSTHQLEVHIESKHDEAEDASSGRLEIDTSAQNKHNPLLIVFSDDQSSDKERKEELNEMISHEQLPELDNLGLDSFSSGPGEEALLQMRSNIIYDSTARIRTG[gap - human IgG1 Fc and a few adjoining residues]
B1 was tested, and the “IC50 (BMP 10); SBE4-luc luciferase reporter in HMVEC cells” value [1] was 61.2 ng/ml and 517 pM.

B2: BMP10pro(22-312)-hFc (Fc fusion)
chain: SPIMNLEQSPLEEDMSLFGDVFSEQDGVDFNTLLQSMKDEFLKTLNLSDIPTQDSAKVDPPEYMLELYNKFATDRTSMPSANIIRSFKNEDLFSQPVSFNGLRKYPLLFNVSIPHHEEVIMAELRLYTLVQRDRMIYDGVDRKITIFEVLESKGDNEGERNMLVLVSGEIYGTNSEWETFDVTDAIRRWQKSGSSTHQLEVHIESKHDEAEDASSGRLEIDTSAQNKHNPLLIVFSDDQSSDKERKEELNEMISHEQLPELDNLGLDSFSSGPGEEALLQMRSNIIYDSTATG[gap - human IgG1 Fc and a few adjoining residues]
In the case of B2, the “fold greater antagonism of BMP10 activity than BMP10pro(22-315)-hFc; SBE4-luc reporter” value [2] is reported as at least 3 fold and the “IC50 (BMP 10); SBE4-luc luciferase reporter in HMVEC cells” value [1] is reported as 17.7 ng/ml and 150 pM.

B3: hENG(26-346)-hFc (Fc fusion)
chain: ETVHCDLQPVGPERDEVTYTTSQVSKGCVAQAPNAILEVHVLFLEFPTGPSQLELTLQASKQNGTWPREVLLVLSVNSSVFLHLQALGIPLHLAYNSSLVTFQEPPGVNTTELPSFPKTQILEWAAERGPITSAAELNDPQSILLRLGQAQGSLSFCMLEASQDMGRTLEWRPRTPALVRGCHLEGVAGHKEAHILRVLPGHSAGPRTVTVKVELSCAPGDLDAVLILQGPPYVSWLIDANHNMQIWTTGEYSFKIFPEKNIRGFKLPDTPQGLLGEARMLNASIVASFVELPLASIVSLHASSCGGRLQTSPAPIQTTPPTG[gap - human IgG1 Fc and a few adjoining residues]
In the case of B3, the “fold decrease in dissociation rate compared to the full-length construct” value [3] is reported as 10 fold.

B4: hENG(26-586)-hFc (Fc fusion)
chain: ETVHCDLQPVGPERDEVTYTTSQVSKGCVAQAPNAILEVHVLFLEFPTGPSQLELTLQASKQNGTWPREVLLVLSVNSSVFLHLQALGIPLHLAYNSSLVTFQEPPGVNTTELPSFPKTQILEWAAERGPITSAAELNDPQSILLRLGQAQGSLSFCMLEASQDMGRTLEWRPRTPALVRGCHLEGVAGHKEAHILRVLPGHSAGPRTVTVKVELSCAPGDLDAVLILQGPPYVSWLIDANHNMQIWTTGEYSFKIFPEKNIRGFKLPDTPQGLLGEARMLNASIVASFVELPLASIVSLHASSCGGRLQTSPAPIQTTPPKDTCSPELLMSLIQTKCADDAMTLVLKKELVAHLKCTITGLTFWDPSCEAEDRGDKFVLRSAYSSCGMQVSASMISNEAVVNILSSSSPQRKKVHCLNMDSLSFQLGLYLSPHFLQASNTIEPGQQSFVQVRVSPSVSEFLLQLDSCHLDLGPEGGTVELIQGRAAKGNCVSLLSPSPEGDPRFSFLLHFYTVPIPKTGTLSCTVALRPKTGSQDQEVHRTVFMRLNIISPDLSGCTSKGTGGG[gap - human IgG1 Fc]
notes: also called full-length construct; Full Length
Work on B4 yielded a Kd [4] of 0.033 nM, a koff [4] of 0.0025 s⁻¹ and a Kd [5] of 0.49 nM. The koff [5] was 0.011 s⁻¹, the binding result [6] was “no binding (tested: 100 nM)” and the binding result [7] was “no binding (tested: 100 nM)”. B4: no binding (tested: 100 nM) [8]; no binding (tested: 100 nM) [9]; no binding (tested: 100 nM) [10]. B4: no binding (tested: 100 nM) [11]; no binding (tested: 100 nM) [12].

From US20230285506A1 (ACCELERON PHARMA, published 2023)
